This note sets out measurements from the supplement of paper PMC11417369.

± gives the standard deviation of the averaged measurements. Some of the results follow.

For this experiment, the system named is PfAP2-EXP AP2 domain (GST-tagged). Briefly: gcPBM binding intensity (ln(normalized median fluorescence intensity)); higher = stronger DNA binding. The method, boiled down: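 Plasmodium falciparum DNA-binding domains carrying a GST tag were expressed in E. coli and applied for 1 h, at about 25 μg on average, to an Agilent 4 × 180k array. The array held primer-extended double-stranded 36-bp intergenic genomic probes together with negative controls, and binding took place in 1× PBS with 1% milk, 0.2 mg/ml BSA, 0.5% salmon testes DNA and 0.03% Triton X-100. An Alexa488 anti-GST antibody detected bound protein, and the array was scanned at 488 nm. Binding intensity is taken as the highest Masliner-normalised natural-log median intensity across replicate spots of either probe orientation.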
For the sequence “TCTTACTAATTTATGGGGACTTATCACCTATTCAGT [CACACA_negctrl_site652]”, the “gcPBM binding intensity (ln)” value came out at 8.6 ± 0.43. For the sequence “CATGAATCCTAATAATGTACATAAGAATTCATAATG [XGTACX_site1607]”, the “gcPBM binding intensity (ln)” value came out at 8.41 ± 0.41.

As to “AACAAAGTCATACATACATACATATATATATATATA [GTGCAC_negctrl_site632]”, the “gcPBM binding intensity (ln)” value stood at 10 ± 0.37. With “TCAATAATAAAAAACACACACAAAAAAAAATAATTA [CACACA_site2798]”, the “gcPBM binding intensity (ln)” value was determined as 8.43 ± 0.62.

With “TATTGTATTTCATATTGTACTAAAAAAAAAAAAAAG [XGTACX_site6694]”, the “gcPBM binding intensity (ln)” value was 8.31 ± 0.37.

For the sequence “ATAATACATACATACATACACACATATATATATATT [CACACA_site3576]”, the “gcPBM binding intensity (ln)” value was determined as 8.79 ± 0.49.

As for “TATATTATTTATAGTAGTACATAAAATATAAATATT [XGTACX_site4417]”, the “gcPBM binding intensity (ln)” value came out at 8.23 ± 0.36. For the sequence “AAAAAAAAAAAAAAAACACACATACACATATATTTT [CACACA_site7768]”, the “gcPBM binding intensity (ln)” value was found to be 8.62 ± 0.19.

Turning to “TAAAAAAAAAAAAAAACACACATATAAATATTTATA [CACACA_site6702]”, the “gcPBM binding intensity (ln)” value amounted to 8.2 ± 0.51.

As to “AGTAAAAAAAAAAAAAAAAAAAAAAAAAAAAAAAAA [GTGCAC_negctrl_site147]”, the “gcPBM binding intensity (ln)” value was found to be 8.09 ± 0.27.

Turning to “TATTAATATTTTTGTTGTACTTAAAAATGATGGTAG [XGTACX_site3501]”, the “gcPBM binding intensity (ln)” value amounted to 8.78 ± 0.16. For “CATATACACGAACACACACACATATAAATAAATATA [CACACA_site6379]”, the “gcPBM binding intensity (ln)” value amounted to 8.73 ± 0.46. As for “TATTATTTTAATTATTCACACATTATTATAAAAATT [CACACA_site5538]”, the figure is 8.3 ± 0.33; as for “GGAATATTAAAAAAATGTACAAAAAATAATATCCAT [XGTACX_site2596]”, 8.97 ± 0.36.

For “TTACAATTTAATATATGTACATATTTGTGATTTATC [XGTACX_site2911]”, the “gcPBM binding intensity (ln)” value was 8.48 ± 0.37.

As to “TATATATATTAAAAAGTGCATTATTCATATTATATA [GTGCAC_site9400]”, the “gcPBM binding intensity (ln)” value is 8.52 ± 0.11. In the case of “TATAATGTTAAATAATGTACATATATTTTTTTTTTT [XGTACX_site4722]”, the “gcPBM binding intensity (ln)” value came to 8.19 ± 0.41.

Consider “AAAATATCTTGTTACTGTACAAATATAAATAAATAC [XGTACX_site3684]”, for which the “gcPBM binding intensity (ln)” value is 8.62 ± 0.23. The result for “TTTATTAATAATTATACACACATATAAAATGAATAA [CACACA_site1359]” reads 8.46 ± 0.47; that for “AATAATAACATACAGACACACACGTAAAAGCACGTG [CACACA_site253]”, 8.71 ± 0.39; that for “TTTATATATTAATATGCACACACAAGAAGTAATTAT [CACACA_site9045]”, 8.96 ± 0.35. Regarding “ATATATACGTATGAATGTATATTTGTTTGAATTTTT [CACACA_negctrl_site524]”, the “gcPBM binding intensity (ln)” value was determined as 8.41 ± 0.86.

Turning to “AATGGGTAAACATACACACACACATATATATATATA [CACACA_site1991]”, the “gcPBM binding intensity (ln)” value came out at 10.1 ± 0.33.

For the sequence “TTTTTTTTTGAAAAAAGTACTTAATTTTTAAGAAGA [XGTACX_site3591]”, the “gcPBM binding intensity (ln)” value was 8.07 ± 0.31. As for “TCTAATAATAAATACACACACATATATATTTATATA [CACACA_site5169]”, the “gcPBM binding intensity (ln)” value was determined as 8.15 ± 0.32.

In the case of “GTCAACAAGAATTAAGTGCATAATTTTTTATTAAAT [GTGCAC_site9492]”, the “gcPBM binding intensity (ln)” value is 8.47. The result for “AAATTTTATGTATAATGTACACATAAATTTTTCTTT [XGTACX_site7266]” reads 8.32 ± 0.34; that for “ATGTCAAGAACTGAACGTACAAACTTTGTAATATTG [XGTACX_site8754]”, 8.62 ± 0.45. As for “AGTAATAATCGGCATGCATGTCAGTGGTAGTATATA [TGCATGCA_site312]”, the “gcPBM binding intensity (ln)” value was determined as 9.3 ± 0.53. The result for “ATACAGATAGGATGCACACATAATTCAAATACAATA [CACACA_site4531]” reads 8.69 ± 0.45; that for “ATATAATAATAATATTGTACAATAAAAAATATATAT [XGTACX_site7350]”, 8.81 ± 0.4. In the case of AAGGAATGCATATAGGTGCTACACATAAAAATAAAA, the “gcPBM binding intensity (ln)” value was 9.13 ± 0.69. The result for “TACTTTTTTCCTATTATGTTTCTTATTTTTATAAAT [XGTACX_negctrl_site561]” reads 8.89 ± 0.6; that for “TTAAGTAGTACATACACACACATATACAAAAAGAAA [CACACA_site3972]”, 9.06 ± 0.35.

Turning to “TCTTATATATTTATTTGTACATATATATATATATAT [XGTACX_site7214]”, the “gcPBM binding intensity (ln)” value came out at 10.1 ± 0.33. As for “AACAACTATTAATTTACACACATGTATTTATTTTAC [CACACA_site5683]”, the figure is 8.73 ± 0.4. For “AATAAGATATCTACAACACACATTTAATTTTTTTTT [CACACA_site1641]”, the “gcPBM binding intensity (ln)” value is 8.31 ± 0.38. Consider “AATCATAAAGAACATATAATATATATATATATATAT [CACACA_negctrl_site316]”, for which the “gcPBM binding intensity (ln)” value stood at 10.1 ± 0.21. For “AATGCATTGATTGCATTCAAAAAAAAAAAAAAAAAA [XGTACX_negctrl_site597]”, the “gcPBM binding intensity (ln)” value was 8.11 ± 0.47. Regarding “ATAAAAAAATAAAACACACACATATATATTATATAT [CACACA_site2810]”, the “gcPBM binding intensity (ln)” value came to 8.53 ± 0.26. The result for “TAAATAAAAAAACACACACACATATATATATATATA [CACACA_site2269]” reads 10.2 ± 0.25; that for “AATTGTCAGAGAATATGTACTTAAGTATTTATTGTT [XGTACX_site1947]”, 8.52 ± 0.4. As for “AATATATGCTTTCGTTATATTAAATTCAATTTAATG [GTGCAC_negctrl_site76]”, the “gcPBM binding intensity (ln)” value was 8.56 ± 0.42. Take “TGTATTACGAAAAAATGTACAGAAAAAGAAACAAAA [XGTACX_site2777]”: the “gcPBM binding intensity (ln)” value came out at 9.11 ± 0.57. Take “TGGGATAGATCATTTACACACACAAAAAAAAAAAAA [CACACA_site2140]”: the “gcPBM binding intensity (ln)” value was 8.09 ± 0.48. Regarding “TTTGTCATAAGCAATGCATGTAAGTTTCTGACATTA [TGCATGCA_site1007]”, the “gcPBM binding intensity (ln)” value is 8.43 ± 0.38. Consider “ATTTATAAAATTAATAGTACATATATTTATATATAT [XGTACX_site4173]”, for which the “gcPBM binding intensity (ln)” value was found to be 8.305 ± 0.021. In the case of “TATTGCACAAAATAATTTTATTATACTTTATGTTAG [TGCATGCA_negctrl_site574]”, the “gcPBM binding intensity (ln)” value was determined as 8.34 ± 0.35. For the sequence “CAAAAATAAACTATAGTACACACTTATTATTATGAA [CACACA_site2702]”, the “gcPBM binding intensity (ln)” value is 8.43 ± 0.3.

For “TATGTTCATCATAGCACACATATATAAATTACAACA [CACACA_site3533]”, the “gcPBM binding intensity (ln)” value is 8.52 ± 0.38. Turning to “ATTTGGCATAGACACACACACACACGCACGCACATA [CACACA_site6424]”, the “gcPBM binding intensity (ln)” value worked out at 8.63 ± 0.47. On to “ATTGTAATCATATGAAGTACTAATATATATTTTAAT [XGTACX_site8350]”, for which the “gcPBM binding intensity (ln)” value was found to be 8.61 ± 0.3. As to “TTTTTATGTAGAATTTTTTTATTTTTTCAAAATGGA [CACACA_negctrl_site166]”, the “gcPBM binding intensity (ln)” value is 8.06 ± 0.59. For “AATTTTAAAAATATAACACACATATATAAAATATAT [CACACA_site3610]”, the “gcPBM binding intensity (ln)” value amounted to 8.36 ± 0.37. Take “AATGAAGAAAAAAAAAGTACATTATTTTTAAAACTT [XGTACX_site563]”: the “gcPBM binding intensity (ln)” value came out at 8.55 ± 0.26. The result for “TTTTAAATAAAATATTGTACATTAAAATTGTAATAT [XGTACX_site2128]” reads 8.1 ± 0.33.
